Article PMC4336329 (PLoS ONE, 2015)
In all, about 310,000 compounds went through this assay and about 2,200 (0.71%) showed an effect of 50% or more. Effects have a minus sign here. The list shows a part of the results.

target: human ether-à-go-go-related gene (hERG) potassium channel (human, UniProt Q12809); assay: primary screen, population patch clamp on CHO cells stably expressing hERG
Sequence (Q12809 whole entry, looked up): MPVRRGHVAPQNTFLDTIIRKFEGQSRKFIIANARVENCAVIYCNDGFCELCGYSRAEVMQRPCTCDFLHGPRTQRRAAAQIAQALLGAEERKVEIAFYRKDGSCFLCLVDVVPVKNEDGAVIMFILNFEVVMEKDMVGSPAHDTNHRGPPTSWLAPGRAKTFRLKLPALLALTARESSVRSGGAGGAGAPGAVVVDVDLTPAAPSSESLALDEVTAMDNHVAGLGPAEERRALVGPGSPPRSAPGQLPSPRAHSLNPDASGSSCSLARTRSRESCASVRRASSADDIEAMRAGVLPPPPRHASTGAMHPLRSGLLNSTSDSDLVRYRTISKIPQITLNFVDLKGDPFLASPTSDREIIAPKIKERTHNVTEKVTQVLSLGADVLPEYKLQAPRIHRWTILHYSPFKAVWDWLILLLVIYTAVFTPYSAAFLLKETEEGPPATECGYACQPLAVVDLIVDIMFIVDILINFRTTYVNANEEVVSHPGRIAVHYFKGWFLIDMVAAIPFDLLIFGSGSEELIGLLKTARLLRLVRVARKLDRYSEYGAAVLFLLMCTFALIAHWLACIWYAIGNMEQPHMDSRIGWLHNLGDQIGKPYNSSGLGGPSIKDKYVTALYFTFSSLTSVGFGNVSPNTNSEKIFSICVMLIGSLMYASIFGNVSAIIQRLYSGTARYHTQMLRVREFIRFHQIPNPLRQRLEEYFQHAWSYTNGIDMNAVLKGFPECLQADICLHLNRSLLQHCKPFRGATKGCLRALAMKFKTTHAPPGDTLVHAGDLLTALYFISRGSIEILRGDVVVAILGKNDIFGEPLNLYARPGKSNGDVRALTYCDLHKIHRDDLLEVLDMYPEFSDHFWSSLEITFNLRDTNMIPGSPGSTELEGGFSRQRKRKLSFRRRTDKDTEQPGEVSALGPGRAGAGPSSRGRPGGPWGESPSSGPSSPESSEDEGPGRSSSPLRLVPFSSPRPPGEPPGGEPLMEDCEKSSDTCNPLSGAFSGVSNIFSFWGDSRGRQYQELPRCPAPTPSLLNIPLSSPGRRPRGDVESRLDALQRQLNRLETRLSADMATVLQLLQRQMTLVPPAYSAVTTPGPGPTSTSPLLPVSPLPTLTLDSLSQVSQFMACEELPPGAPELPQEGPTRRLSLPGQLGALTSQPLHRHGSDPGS

SMILES | hERG current change (%, negative = inhibition) at 1uM
N/C(=N\OC(=O)COc1ccc(Cl)cc1Cl)c1cccnc1 | 20.3%
CNc1nc(-c2ccc(S(=O)(=O)N3CCCCC3)cc2)cs1 | 9.51%
CCN(Cc1ccc(OC)c(COC)c1)CC1CCCN(CCc2cccc(OC)c2)C1 (stereo not drawn) | 8.68%
COc1cc(C(c2c(O)nc(SC)[nH]c2=O)c2c(O)nc(SC)[nH]c2=O)cc(OC)c1OC | 16.4%
COc1ccc(NS(=O)(=O)c2cc(NC(=O)c3ccc(C)s3)ccc2N2CCOCC2)cc1 | 9.16%
CC(=O)Nc1ccc2c(c1)nc1n2CCSC1 | 11.6%
O=C(NCCCN1CCOCC1)c1ccc2c(c1)N(Cc1ccc(Cl)cc1)C(=O)c1ccccc1S2=O (stereo not drawn) | -1.98%
COc1cccc(OCc2cc(C(=O)NCc3ccccn3)no2)c1 | 8.46%
COc1ccc(N2CSC3=C(C#N)C(c4ccc(OC)c(OC)c4)CC(=O)N3C2)c(OC)c1 (stereo not drawn) | -5.23%
O=C(O)c1cccc(NC(=O)c2cc(NC(=O)c3ccccc3)cc(NC(=O)c3ccccc3)c2)c1 | 13.6%
CCOc1cc(C(=O)NCCOC)cc(OCC)c1OCC | 9.5%
CCOCCn1c(=O)c2c(nc3n2CCN3c2ccc(CC)cc2)n(C)c1=O | 9.98%
O=C(c1ccc(Br)o1)N1CCN(C23CC4CC(CC(C4)C2)C3)CC1 | 1.54%
Cc1ccc(C2CC(=O)NC(SCC(=O)Nc3nccs3)=C2C#N)cc1 (stereo not drawn) | 7.51%
COCCN1CC(=O)N2C(c3cccc(OC)c3)c3[nH]c4ccccc4c3C[C@H]2C1=O (stereo partly drawn) | -11.7%
COc1ccc(/C(C)=N/NC(=O)CNC(=O)C2COc3ccccc3O2)c(OC)c1 (stereo not drawn) | 10.6%
C=CCOc1ccc(CN(C)c2ccc(S(=O)(=O)N3CCN(C)CC3)cc2[N+](=O)[O-])cc1 | 4.92%
Cc1ccc(S(=O)(=O)/N=C/N(C)C)cc1 | 7.82%
COc1cc(-n2c(=O)c3ccccc3n(Cc3cccc(F)c3)c2=O)cc(OC)c1OC | 33.5%
COc1ccc(C2=NC(c3ccccc3)CO2)cc1 (stereo not drawn) | -0.0278%
CCCSc1nc(N2CCOCC2)c2c(c1C#N)CC(C)(C)SC2 | 2.01%
CCCCCOC(=O)c1ccc(OC(=O)c2cncc(Br)c2)cc1 | 3.96%

SMILES | hERG current change (%, negative = inhibition) at 1uM
Nc1nnc(SCc2ccccc2F)n1-c1ccccc1 | 10.2%
CC(NC(=O)NCC1CCCO1)(C(F)(F)F)C(F)(F)F (stereo not drawn) | -0.248%
O=C(NCCCO)c1ccc2[nH]c3c(c2c1)CCCC3 | 14.9%
CC1CCN(c2ccc3nnc(CCC(=O)N4CCCCC4)n3n2)CC1 | 12.9%
O=C(Nc1cc(S(=O)(=O)N2CCOCC2)ccc1N1CCOCC1)c1cccs1 | -4.52%
O=C(O)C(Sc1ccncn1)c1ccccc1 (stereo not drawn) | 14.4%
CCN(CCO)Cc1csc2ccc(C(C)(C)C)cc12.Cl | -1.53%
CCOC(=O)c1c(NC(C)=O)sc2c(O)cccc12 | 10.1%
CCOc1ccc(C(=O)C(C)OC(=O)C2CCN(c3ccc(C(F)(F)F)cn3)CC2)cc1 (stereo not drawn) | -3.61%
CCCn1c(N2CCN(C(=O)N3CCCCC3)CC2)nc2ccccc21.Cl | 5.94%
COc1cc(/C=C2\C(=N)N3N=C(C)SC3=NC2=O)cc(Cl)c1OCCOc1ccc(NC(C)=O)cc1 | 12.2%
CCn1cc(C(=O)NCCCOC)c(=O)c2cc(S(=O)(=O)N3CCCC3)ccc21 | 12.3%
COc1cc(/C=C/c2nc3ccccc3c(=O)[nH]2)cc(Br)c1O | 20.1%
c1ccc(-c2nc(-c3ccc(-c4ccon4)s3)no2)cc1 | 15.8%
CCn1c(SCC(=O)NCc2ccc3c(c2)OCO3)nnc1-c1c[nH]c2ccccc12 | 14.9%
COc1cc(OC)cc(-c2c(C#Cc3ccsc3)c3cc(-c4ccc5[nH]ccc5c4)ccc3n2C)c1 | 9.5%
COCCN1C(=O)N[C@@H](c2cccc(C(F)(F)F)c2)[C@H](C(=O)OC)[C@H]1C | 8.01%
CC(C)c1ccc(CN(C(=O)c2cc3ccccc3oc2=O)C2CCS(=O)(=O)C2)cc1 (stereo not drawn) | -13%
CCN(CC)C(=O)CSc1nc2c(sc(=S)n2-c2ccccc2)c(=O)n1Cc1ccco1 | -86.3%
CC(=O)c1nc2ccccc2n1CCc1ccccc1 | 4.84%
O=C(NCCCNc1ccc(C(F)(F)F)cc1[N+](=O)[O-])c1ccc(Cl)cc1 | -6.21%
O=C(COc1nc2ccccc2nc1N1CCOCC1)NC1CCCCC1 | -5.01%

SMILES | hERG current change (%, negative = inhibition) at 1uM
CCOC(=O)C1(C)NC(c2ccco2)C2C(=O)N(c3ccccc3)C(=O)C21 (stereo not drawn) | 15.2%
CC1C/C(=N\Nc2ccc(S(N)(=O)=O)cc2[N+](=O)[O-])CC(C)(C)C1 (stereo not drawn) | 6.5%
COc1ccc(C(CNC(=O)CSc2ccc(Br)cc2C)N2CCOCC2)cc1 (stereo not drawn) | 5.16%
CCOC(=O)c1ccc2c(c1)nc(SCC(=O)c1cc3ccccc3o1)n2CC | 15.3%
COc1cccc(C(=O)NN2c3ccccc3CCc3ccccc32)c1 | 10.8%
CC(=O)N1CCN2C(=O)C1CCCC(=O)c1cc(C)ccc12 (stereo not drawn) | 18.2%
CCc1ccc(NS(=O)(=O)c2cccc3nonc23)cc1 | 7.65%
Cc1ccc(CNC(=O)c2ccc(OCC(C)C)cc2)n1C | 11.9%
CC(=O)Nc1ccc(N(CC(O)Cn2c3ccccc3c3ccccc32)S(=O)(=O)c2ccc(C)cc2)cc1 (stereo not drawn) | 5.25%
O=C(OCC(=O)N1CCCC1)c1ccco1 | 10.1%
COC(=O)c1ccc(NCC(=O)N2CCCCCC2)cc1 | 10.3%
Cl.O=C(Cc1ccccc1)OC(COCc1ccccc1)CN1CCOCC1 (stereo not drawn) | 6.63%
CCOC(=O)Cc1cnc(NC(=O)CSc2nc(C)c(CC)c(=O)[nH]2)s1 | 13.2%
C(=N\Nc1nc(N2CCCC2)nc(N2CCCC2)n1)/c1cccnc1 | 14.1%
CC1CCc2nc(NC(=O)C3COc4ccccc4O3)sc2C1 (stereo not drawn) | 3.02%
Cc1cccc(OCC(=O)Nc2ccc3c(c2)nc(CCN2CCN(c4ccccn4)CC2)n3C)c1 | -67%
O=C(Nc1ccc2c(c1)OCO2)c1n[nH]c(=O)c2ccccc12 | 11.1%
CCOC(=O)C(Cc1ccccc1)c1ccnc2nc(N)nn12 (stereo not drawn) | 0.826%
COc1cc(CN2CCN(C(=O)c3cccc4ccccc34)CC2)cc(OC)c1OC.O=C(O)C(=O)O | 8.51%
ClC(Br)=C(n1cnc2ccccc21)n1cnc2ccccc21 | -3.11%
Cc1ccc(-c2nnn(CC(=O)N(C)C3CCCCC3)n2)o1 | 10.9%
Cc1ccc2cc(CCNC(=O)C3CCCCC3)c(=O)[nH]c2c1C | 2.85%

SMILES | hERG current change (%, negative = inhibition) at 1uM
O=C(NCc1ccc2c(c1)OCO2)c1sccc1Br | 8.52%
CCOc1ccc(CC(=O)N/N=C/c2cccnc2)cc1OCC | 12.8%
CSC1=NC(C)(C)C=C(/C=C/c2ccc(Cl)cc2)N1 | -5.72%
COC(=O)c1[nH]c2cc(OC)ccc2c1NC(=O)CCN1CCCC(C)(C)C1 | -3.05%
Cc1noc(C)c1C(=O)N(CC(=O)NC1CCCC1)Cc1ccccc1F | 6.58%
CCCCn1c(O)c(/C=C/C=Nc2ccccc2)c(=O)[nH]c1=O | -1.94%
N#Cc1c(SCC(=O)Nc2nncs2)sc2c(O)cc(=O)[nH]c12 | 11.7%
COc1cc(NC2c3ccccc3C(=O)N2Cc2ccc3c(c2)OCO3)cc(OC)c1 (stereo not drawn) | 2.66%
COc1ccc(CNC(=O)C2CCN(S(=O)(=O)c3cccc4cccnc34)CC2)cc1 | -5.81%
O=C(COC(=O)c1cccc(F)c1)Nc1cccnc1Cl | 5.58%
Cc1ccc(Oc2nc(-c3ccccc3)ncc2S(=O)(=O)c2ccc(C)cc2)cc1 | 12.1%
Cc1nc2ccccc2c(=O)n1NC(=O)/C=C/c1ccccc1Cl | -51.1%
Nc1nc(SCc2ccc(Cl)cc2)ns1 | 3.67%
O=C(COc1cccc2c1CCN(Cc1ccccc1)C2=O)N1CCCCC1 | 8.21%
COc1nc(-c2ccccc2)ccc1-c1noc(-c2cccs2)n1 | 0.091%
CN1C(=O)C(Cc2ccc(OCc3ccccc3)cc2)C(=O)N(C)C1=O | 19.1%
CCn1c(CSCc2ccccc2)n[nH]c1=S | 13.8%
O=C(NC1CC1)c1ccc(CSCc2ccccc2Cl)o1 | 13.4%
Cc1ccccc1Cn1nc(C)c(NC(=O)c2cc(-c3ccco3)on2)c1C | -3.52%
Cc1scc(C(=O)NNC(=S)NCC2CCCO2)c1-c1ccccc1 (stereo not drawn) | 9.6%
COc1ccc([C@H]2/C=C\CN(C(=O)c3ccccc3)[C@@H](C)C(=O)N2Cc2ccc(F)cc2)cc1 | -5.9%
